In patent US20250270318A1 (AB THERAPEUTICS, published 2025):

Legend:
[1] = target: T1, TIGIT (on TIGIT-transfected Jurkat cells) (UniProt Q495A1 22-244, limits assumed); test: flow cytometry, antibody binding to Jurkat TIGIT cells (MFI), fluorescent anti-human IgG Fc secondary
T1 construct: whole, on cells; also called Jurkat TIGIT; cell-associated TIGIT
T1 sequence (looked up): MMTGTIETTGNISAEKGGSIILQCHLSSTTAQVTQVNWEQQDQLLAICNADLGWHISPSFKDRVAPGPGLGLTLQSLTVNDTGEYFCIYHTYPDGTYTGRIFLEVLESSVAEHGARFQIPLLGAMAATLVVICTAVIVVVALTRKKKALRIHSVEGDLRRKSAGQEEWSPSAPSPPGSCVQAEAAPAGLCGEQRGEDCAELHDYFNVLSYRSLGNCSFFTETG
Description: 10⁵ cells (RKO, Jurkat TIGIT, and Jurkat LAG-3 for testing antibody binding to PD-L1, TIGIT, and LAG-3, respectively) per well were distributed in 0.1 ml medium to 96-well V-bottom plates. Supernatants were discarded after spinning down cells at 300 g, 5 min at room temperature. Cells were resuspended in […] of a serial dilution of antibodies and incubated for 1 h at room temperature. After incubation, cells were washed by adding 0.15 ml cell staining buffer (PBS containing 1% FBS and 0.1% NaN3) and centrifugation at 300 g, 5 min at room temperature. Supernatants were discarded and cells were washed one more time with 0.15 ml of staining buffer. Cells were subsequently resuspended in […] of secondary antibody (Alexa Fluor 647-conjugated AffiniPure Goat Anti-Human IgG, Fcγ Fragment Specific. Used at 1:500) and incubated at RT for 30 min. Cells were spun down after 0.15 ml cell staining buffer was added, resuspended in 0.12 ml of cell staining buffer, and analyzed by flow cytometry on a NovoCyte flow cytometer (Agilent).

[2] = target: T2, biotinylated LAG-3 (UniProt P18627 23-450, limits assumed, biotinylated); test: flow cytometry blocking assay: biotinylated LAG-3 binding to MHC-II+ Raji cells (MFI), streptavidin detection
T2 construct: Construct not described; also called LAG-3 probe
T2 sequence (looked up): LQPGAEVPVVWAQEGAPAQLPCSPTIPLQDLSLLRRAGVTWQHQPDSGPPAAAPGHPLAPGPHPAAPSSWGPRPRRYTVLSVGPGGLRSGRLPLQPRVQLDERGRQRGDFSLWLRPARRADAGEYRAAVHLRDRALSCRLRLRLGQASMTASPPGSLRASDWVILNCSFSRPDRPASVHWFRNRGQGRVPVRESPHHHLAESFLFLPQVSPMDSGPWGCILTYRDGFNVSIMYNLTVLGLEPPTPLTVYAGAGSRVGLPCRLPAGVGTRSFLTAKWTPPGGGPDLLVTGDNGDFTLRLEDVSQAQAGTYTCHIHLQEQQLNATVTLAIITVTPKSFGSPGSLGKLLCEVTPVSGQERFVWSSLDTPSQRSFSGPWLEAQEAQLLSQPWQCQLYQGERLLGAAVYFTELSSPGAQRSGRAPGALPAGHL
Description: (§1) 10⁵ cells (RKO for PD-1/PD-L1 blocking, Raji for MHC-II/LAG-3 blocking, and Jurkat TIGIT for CD155/TIGIT blocking) were distributed per well in 0.1 ml medium to 96-well V-bottom plate in duplicate. Supernatants were discarded after spinning down cells at 300 g, 5 min at room temperature. […] After incubation, cells were washed by adding 0.15 ml cell staining buffer (PBS containing 1% FBS and 0.1% NaN3) and centrifugation at 300 g, 5 min at room temperature. Supernatants were discarded and cells were washed one more time with 0.15 ml of staining buffer. Cells were subsequently resuspended in […] of 1:500 Streptavidin-PE and incubated at RT for 30 min. Cells were spun down after 0.15 ml cell staining buffer was added, resuspended in 0.12 ml of cell staining buffer, and analyzed by flow cytometry on a NovoCyte flow cytometer (Agilent).

[3] = target: T1, TIGIT (on TIGIT-transfected Jurkat …); test: flow cytometry blocking assay: biotinylated CD155 binding to Jurkat TIGIT cells (MFI), streptavidin detection
Description: as §1

EC50 [1]: 4.77 nM
IC50 [2]: 3.78 nM
IC50 [3]: 2.41 nM
B1: PD-L1/LAG3/TIGIT TsAb (other)
chain: EVQLVESGGGLVQPGGSLRLSCAASSRTFSRYAMGWFRRAPGKEREFVASISWSGGGLEYAESVKGRFTISRDGSKNTVYLQMNSLAAEDTAVYYCAADPWGSLVNGAVRYEYWGQGTLVTVSSGGGGSGGGGSQVQLVESGGGLVQAGGSLRLSCAASGLPFWDYAIGWYRQAPGKEREGVSCITNSGSTYYADSVKGRFTISSDIAKNTVFLQMNSLKPEDTAVYSCAANGWGDCSGSYRYTPYEYDYWGQGTLVTVSSGGGGS[about 350 residues with a human IgG1 Fc not given here]
notes: also called PDL1×TIGIT×LAG3 tri-specific antibody; TIGIT/LAG3/PD-L1 trispecific antibody
